Key:
[1] = biological target: T1, human OX40 on cells (human, UniProt P43489 29-277); assay: flow cytometry on activated human PBMC, OX40+ CD4+ or CD8+ T cells
T1 construct: whole, on cells
T1 sequence (looked up): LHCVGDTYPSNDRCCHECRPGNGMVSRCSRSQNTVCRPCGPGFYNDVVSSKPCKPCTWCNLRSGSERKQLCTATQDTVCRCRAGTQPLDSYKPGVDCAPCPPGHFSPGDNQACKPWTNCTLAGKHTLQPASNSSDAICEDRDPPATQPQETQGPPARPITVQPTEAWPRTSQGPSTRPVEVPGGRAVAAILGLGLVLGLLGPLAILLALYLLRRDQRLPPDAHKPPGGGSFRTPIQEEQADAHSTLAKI

[2] = biological target: T2, human fibroblast activation protein (FAP) on cells (human, UniProt Q12884 1-760); assay: flow cytometry on WM-266-4 cells
T2 construct: also called human FAP; huFAP

B1: monovalent FAP(28H1) targeted split trimeric OX40 ligand Fc (kih) fusion containing CH-CL cross with charged residues (construct 6.1) (Fc fusion)
chain 1: QVSHRYPRIQSIKVQFTEYKKEKGFILTSQKEDEIMKVQDNSVIINCDGFYLISLKGYFSQEVDISLHYQKDEEPLFQLKKVRSVNSLMVASLTYKDKVYLNVTTDNTSLDDFHVNGGELILIHQNPGEFCVLGGGGSGGGGSQVSHRYPRIQSIKVQFTEYKKEKGFILTSQKEDEIMKVQDNSVIINCDGFYLISLKGYFSQEVDISLHYQKDEEPLFQLKKVRSVNSLMVASLTYKDKVYLNVTTDNTSLDDFHVNGGELILIHQNPGEFCVLGGGGSGGGGSRTVAAPSVFIFPPSDRKLKSGTASVVCLLNNFYPREAKVQWKVDNALQSGNSQESVTEQDSKDSTYSLSSTLTLSKADYEKHKVYACEVTHQGLSSPVTKSFNRGE[no letters for human IgG1 Fc with changes]
chain 2: QVSHRYPRIQSIKVQFTEYKKEKGFILTSQKEDEIMKVQDNSVIINCDGFYLISLKGYFSQEVDISLHYQKDEEPLFQLKKVRSVNSLMVASLTYKDKVYLNVTTDNTSLDDFHVNGGELILIHQNPGEFCVLGGGGSGGGGSASTKGPSVFPLAPSSKSTSGGTAALGCLVEDYFPEPVTVSWNSGALTSGVHTFPAVLQSSGLYSLSSVVTVPSSSLGTQTYICNVNHKPSNTKVDEKVEPKSC
heavy: EVQLLESGGGLVQPGGSLRLSCAASGFTFSSHAMSWVRQAPGKGLEWVSAIWASGEQYYADSVKGRFTISRDNSKNTLYLQMNSLRAEDTAVYYCAKGWLGNFDYWGQGTLVTVSSASTKGPSVFPLAPSSKSTSGGTAALGCLVKDYFPEPVTVSWNSGALTSGVHTFPAVLQSSGLYSLSSVVTVPSSSLGTQTYICNVNHKPSNTKVDKKVEPKSCDKTHTCPPCPAPEAAGGPSVFLFPPKPKDTLMISRTPEVTCVVVDVSHEDPEVKFNWYVDGVEVHNAKTKPREEQYNSTYRVVSVLTVLHQDWLNGKEYKCKVSNKALGAPIEKTISKAKGQPREPQVCTLPPSRDELTKNQVSLSCAVKGFYPSDIAVEWESNGQPENNYKTTPPVLDSDGSFFLVSKLTVDKSRWQQGNVFSCSVMHEALHNHYTQKSLSLSPGK
light: EIVLTQSPGTLSLSPGERATLSCRASQSVSRSYLAWYQQKPGQAPRLLIIGASTRATGIPDRFSGSGSGTDFTLTISRLEPEDFAVYYCQQGQVIPPTFGQGTKVEIKRTVAAPSVFIFPPSDEQLKSGTASVVCLLNNFYPREAKVQWKVDNALQSGNSQESVTEQDSKDSTYSLSSTLTLSKADYEKHKVYACEVTHQGLSSPVTKSFNRGEC
notes: also called FAP-OX40L; FAP targeted OX40 ligand Fc (kih) construct
- EC50 [1]: 0.15 nM
- EC50 [2]: 6.9 nM

Source: patent US20250101135A1 (Hoffmann-La Roche, published 2025)
